# Assay results from PMC12136788.
# The list shows a part of the results.
# T1: UNK ZnF1-3 (human, UniProt Q9C0B0 31-174)
# T1 sequence: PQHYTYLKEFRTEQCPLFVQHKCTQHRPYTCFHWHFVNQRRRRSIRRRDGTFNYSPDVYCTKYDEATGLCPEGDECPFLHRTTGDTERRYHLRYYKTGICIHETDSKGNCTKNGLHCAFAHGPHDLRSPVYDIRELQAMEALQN
# B1: 96689355_96689475_272_5pUTR_ENSMUSG00000038615_ENSMUST00000081775|mouse|control|control (ssRNA)
# RNA: GGGAGUUCUACAGUCCGACGAUCUCUAUGGAGAUCCACUGCAGGCUGCUCACACCAACAGCUGAUGGAGUCUUUCUUUCCUCCUUUUUUUUUUCCCCCCCUUCUCCUUCCUAAGGUUUAUUUUCUUUGGCUGGAGCUACAGGUCAACAGAGGAUUGAGCAUCA
# B2: chr14:78183846:78183847:+_ENSG00000119705_ENST00000557342|hu_hu|hu_hu_hu_mus_False|98_98 (ssRNA)
# RNA: GGGAGUUCUACAGUCCGACGAUCUCUCAGAAAUCUUUCUUUCUUUUAUGUUUGAGCUCCGUGCAAAGCCUUUGCUCUUUGAGCUUGAACGUGGAUCUAUGGGAGGGAAAGCACUGUCAGAAAAGGUAAUUUUUUUUUUAAAGACAACAGAGGAUUGAGCAUCA
# B3: chr11:115359427:115359428:-_ENSMUSG00000020737_ENSMUST00000021083|mus_hu|motif|central (ssRNA)
# RNA: GGGAGUUCUACAGUCCGACGAUCUGCAGUUCACAAGCAUGGAGGAAACAGACAGAACGACAGCGUUCAGGACAGUCAGAGCGGACCCAAGACGAGGCUGGACUUGCCGCCAGGGGGAUUUCUUCUGGAUGGCACUGGGGCCGGCAACAGAGGAUUGAGCAUCA
# B4: chr11:88578658:88578659:-_ENSMUSG00000069769_ENSMUST00000107909|perfect_dup|FALSE|FALSE (ssRNA)
# RNA: GGGAGUUCUACAGUCCGACGAUCGGAGCGUUUCGUAGUGGGAUCUCUCAUGACCAUACAUUCUCUAAUUUCUCCAAAUUUGCUAAAAUAGUCUCUAAGGCUAUCUGGUGAGGUCUGCCAGCUCAGUCCACCGAUAAACAUUUUCAACAGAGGAUUGAGCAUCA
# B5: chr4:140556289:140556290:+_ENSMUSG00000036622_ENSMUST00000037055|mus_mus|mus_mus_mus_hu_False|1_58 (ssRNA)
# RNA: GGGAGUUCUACAGUCCGACGAUCGAUGGAGCUCACCAGGCCCCCUUUUGCCGUGCAGAACCCUGUGCGGGUCACCACUGCUAGCACGUGCGGUCCCACAUAGGCCCGGGCCUGCAAGAUGAGGGUCCCGCAGAAGAGGGUGUGCAACAGAGGAUUGAGCAUCA
# B6: chr15:80390846:80390847:+_ENSG00000086666_ENST00000559775|hu_hu|motif|central (ssRNA)
# RNA: GGGAGUUCUACAGUCCGACGAUCCUGUCCUGUAUCUUGAGACAGACAUUAGCUUUCUGCCUUCCCUAUUCUCAUAAGCAGCGGCUUAAAAGUUUUGAAUUUUAUGCAAGAAAACAUUUUAAAGCCUUCUGUGUUUUACUGCAGCAACAGAGGAUUGAGCAUCA
# B7: chr6:160170297:160170298:+_ENSG00000146457_ENST00000337387|hu_hu|motif|central (ssRNA)
# RNA: GGGAGUUCUACAGUCCGACGAUCCAAAGCUCUUUUAAACAUGUGCCUGUUGAAUGGAACGGGGAUUUCAUAAAAUUCACGGAAAAAAAUAAUGCAGUGAGUCUCAUCACAGCUAAUAUCCUUAUACAAUCUAGUUGUGAAAUGCAACAGAGGAUUGAGCAUCA
# B8: chr3:10015032:10015033:+_ENSMUSG00000027533_ENSMUST00000029046|mus_mus|mus_mus_mus_hu_True|18_48 (ssRNA)
# RNA: GGGAGUUCUACAGUCCGACGAUCGUUUUUACCAUCACAAGUGAUGAUACAAUCUGGCUUGGCCAUUGCGCCCAUUUUUCGCAAAGCCAGUCCUACUCCUAGCUCCUUCAUGUAUUCCUCAAAGCCGUUGCUGUCCACCAGGCGCAACAGAGGAUUGAGCAUCA
# B9: chr3:52741720:52741721:+_ENSG00000114902_ENST00000602728|hu_hu|motif|central (ssRNA)
# RNA: GGGAGUUCUACAGUCCGACGAUCAUAGAUGGGCCAUGGAGGAAGUGUCAGCAAACAUGAAAAAGCAAAUCCGGCCAUAACGGUAUAGACAGUCCACCCGAACUGUUCAGCCACGUACCCGUAGAUAAAUCCAACUAUUGCAGACAACAGAGGAUUGAGCAUCA
# B10: chr2:125083379:125083380:+_ENSMUSG00000027203_ENSMUST00000082122|mus_hu|FALSE|FALSE (ssRNA)
# RNA: GGGAGUUCUACAGUCCGACGAUCUAAAAAAUAUUGCUUAAGAUUUAAAGCAAUUAAAGCAAAAUAAGUUGCUGAAGGGAGAUCAUAUGAGUUAAAUACAGGCUUUUUUUUUUAAUCUGUAAUUGAUUUACAUUUGAUUUUAAGCAACAGAGGAUUGAGCAUCA
# B11: chr18:10000604:10000605:-_ENSMUSG00000047879_ENSMUST00000092096|mus_hu|FALSE|FALSE (ssRNA)
# RNA: GGGAGUUCUACAGUCCGACGAUCAGACACCAUUUUCUCUUGAAGUUCUGGUGUACACAGUUCAUACAUAUCCAACAUAAGAGGAAAUUUAACAUCCUUAAGAACUUUGGCAUUCACAGAUUCCUUCUCUUUAUAAAAAAAUCGCAACAGAGGAUUGAGCAUCA
# B12: chr3:176767854:176767855:-_ENSG00000177565_ENST00000430069|hu_hu|hu_hu_hu_mus_False|58_68 (ssRNA)
# RNA: GGGAGUUCUACAGUCCGACGAUCGACAUCCUUGUUACUGGGCACGUCCUGCCCUCCUUCCCGUAUGCAAUGUCUAAGUACUAACUGCGUAGGGCCACUCGUGCUGUUCUCACUGAGGUUCCAGAUUCUUGCCGUGGAGUCUCCCAACAGAGGAUUGAGCAUCA
# B13: chr12:39763582:39763583:-_ENSG00000139116_ENST00000544797|hu_mus|hu_hu_hu_mus_False|48_58 (ssRNA)
# RNA: GGGAGUUCUACAGUCCGACGAUCCUCUAGGAACUGGGCAUUCACUUUGAAUUCAGGAGGGGGCAGCCCGUUUUUAAUUGCUAUGUGUUUUUUUUCUUCAAUACUCUUGAACAGGUGUCUAACAGCACGAGAGAUGAUGCCCUGCAACAGAGGAUUGAGCAUCA
# B14: chr11:77336104:77336105:-_ENSG00000074201_ENST00000525064|hu_mus|hu_hu_hu_mus_False|1_1 (ssRNA)
# RNA: GGGAGUUCUACAGUCCGACGAUCCUCACACAUUGCUGUGAACAUCGCCUCCAAUGCUGACUUAUCACUGGGCACAAAUCGAAAUUCAGAAAUGGGUUCAACAUCAUCAUUGUCUUCCUCAUCUUCAUCAGAGAGAGCAGGUUCCAACAGAGGAUUGAGCAUCA
# B15: chr2:232320318:232320319:-_ENSG00000115053_ENST00000322723|hu_hu|hu_hu_hu_mus_True|38_48 (ssRNA)
# RNA: GGGAGUUCUACAGUCCGACGAUCACUAUUAAAGUCUACAAAACCAAACCCUUUGGAAGAACCAGUUUCCCGAUCAGUGACUAUUCUUGCCCGAACGGAGCCGUCAAAUGAUUCUUUUAAGGUCUCUUCAGUGGUAUCCUCAGACAACAGAGGAUUGAGCAUCA
# B16: 36009425_36013022_520_3pUTR_ENSMUSG00000022905_ENSMUST00000004054|mouse|control|control (ssRNA)
# RNA: GGGAGUUCUACAGUCCGACGAUCUACUCCUGGUGUGUUGAUGACUUCAUCAAUUGGAGGAUUAGGUUCUUUUGAAAGUAGUUUCCUAAACUUCUGUGUUGCAGAGAGCUGCUGCUCUGGGCUAUUCGAGAAUAUCAUAUCAGUCAACAGAGGAUUGAGCAUCA
# B17: chr17:28199517:28199518:+_ENSMUSG00000024219_ENSMUST00000088027|mus_hu|FALSE|FALSE (ssRNA)
# RNA: GGGAGUUCUACAGUCCGACGAUCCUCAAAGUGUUUAUAAUUCAGACAAAAUCAGACAGAUUAACAAUUUUAUAUACAGUAAAACAAAAGGGAAAGUCAUUCAAGUAUCAAAAUACAGAGACAAAGAUUAAAUAACAUUUUCAUCAACAGAGGAUUGAGCAUCA
# B18: chr11:29999759:29999760:-_ENSMUSG00000020315_ENSMUST00000011877|mus_mus|motif|central (ssRNA)
# RNA: GGGAGUUCUACAGUCCGACGAUCAUACACUUAGCAAUGAUUUAAAGGGUUUAUUAUACAUCUAGUUUAUUAUACUUUGUACGGGAAUUAUCUCAAACAUACAAUAUAAUGUAUUUCAGAAAAAAAGAGACUGAAAUUACAGAUCAACAGAGGAUUGAGCAUCA
# B19: chr2:47387792:47387793:-_ENSG00000143933_ENST00000272298|hu_hu|hu_hu_hu_mus_True|38_38 (ssRNA)
# RNA: GGGAGUUCUACAGUCCGACGAUCUAAGGACAAUGACAGUAAGAUAAGGGAAGAAAACAUGGAGGAAUGAAGUCCUAAUUACUAUACAUGCAUAUUUUUUUGACAGUGGGGGGGGGAACCUUUUACAGAUAAGUUACAAACAAACAACAGAGGAUUGAGCAUCA
# B20: chr7:75932113:75932114:+_ENSG00000106211_ENST00000248553|hu_hu|hu_hu_hu_mus_False|8_8 (ssRNA)
# RNA: GGGAGUUCUACAGUCCGACGAUCCUGCGACCACUCAUCGGGCAACCGGGGCACCCCGAAAGCUUGAUCGAAGAGGCGGCUGUGUGCAGGGUACCAGUCCCGGAAUGGUUCCCAGCUCGGGCUCCGCAGCGAGAAGGAGGGCACCAACAGAGGAUUGAGCAUCA
# B21: 74934108_74934228_2618_3pUTR_ENSG00000253719_ENST00000519948|human|control|control (ssRNA)
# RNA: GGGAGUUCUACAGUCCGACGAUCAAUCAGUCUAUACAGUCUAAAUAGUACCUUCUGGGAUAAGGAUUGAUACAUGCACAGCAAGGGUGAGAGAAUGGACAAGGACCAACUCCAUCCCCCUGUGUGUCAAUCAGCCUUUACUGCCAACAGAGGAUUGAGCAUCA
# B22: chr4:76721835:76721836:+_ENSG00000138768_ENST00000264904|hu_hu|FALSE|FALSE (ssRNA)
# RNA: GGGAGUUCUACAGUCCGACGAUCUUUGGCUGGGGUUUCUGAGAUGCUCUGGAAUACAACUCAUGUUUGCUAAUAAAUCCUAGUUUCUCUAUGAAAUUCUCUUUGCCAAUCCUCUUCUCAAUCAGUUGUUUUAGCUUCUCUUUCCAACAGAGGAUUGAGCAUCA
# Target: T1, UNK ZnF1-3
# Test: nsRBNS (natural sequence RNA bind-n-seq); RBNS binding buffer (assumed for nsRBNS): 25 mM Tris pH 7.5, 150 mM KCl, 3 mM MgCl2, 0.01% Triton X-100, 500 ug/ml BSA, 20 U/ml SUPERase-In, 4 C; UNK is unkempt and MSI1 is Musashi-1; names of the RNAs are library labels; protein concentration not given here; high values mean tight binding
row,Binder,binding signal [enrichment R]
1,B1,0.573
2,B2,0.945
3,B3,1.45
4,B4,0.931
5,B5,0.568
6,B6,0.687
7,B7,0.679
8,B8,0.6
9,B9,1.56
10,B10,1.49
11,B11,0.96
12,B12,0.653
13,B13,1.5
14,B14,1.05
15,B15,0.718
16,B16,0.553
17,B17,1.84
18,B18,0.784
19,B19,1.92
20,B20,1.42
21,B21,0.856
22,B22,0.43
